Assay results reported in PubChem BioAssay AID360 (National Center for Advancing Translational Sciences (NCATS), 2006).
Out of some 48,000 compounds screened, about 550 (1.1%) were called active. Roughly 4% stayed inconclusive and do not appear here. Rule as the data show it: active = potency below about 15 µM; inconclusive = mostly about 16 µM to 33 µM; inactive = weaker than that. The list shows a part of the results.

Target: Lysosomal acid glucosylceramidase (Homo sapiens) (UniProt P04062)
Test: Glucocerebrosidase;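 also: the screen sought inhibitors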
Conditions: purified enzyme, resorufin glucoside fluorescence (screen aimed at inhibitors), 20 min; series mostly up to 77 µM
Outline: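 Wild-type enzyme at 0.2 nM final in 50mM citric acid/KH2PO4, 10mM sodium taurocholate, 0.01% tween-20, pH 5.9, with resorufin beta-D-glucopyranoside at 30 uM final. Compounds titrated, 20 min at RT, red fluorescence read; AC50 from titration.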
Potency is read from the fitted curve at half-maximal effect.

Sequence of UniProt P04062 (P04062 whole entry, looked up): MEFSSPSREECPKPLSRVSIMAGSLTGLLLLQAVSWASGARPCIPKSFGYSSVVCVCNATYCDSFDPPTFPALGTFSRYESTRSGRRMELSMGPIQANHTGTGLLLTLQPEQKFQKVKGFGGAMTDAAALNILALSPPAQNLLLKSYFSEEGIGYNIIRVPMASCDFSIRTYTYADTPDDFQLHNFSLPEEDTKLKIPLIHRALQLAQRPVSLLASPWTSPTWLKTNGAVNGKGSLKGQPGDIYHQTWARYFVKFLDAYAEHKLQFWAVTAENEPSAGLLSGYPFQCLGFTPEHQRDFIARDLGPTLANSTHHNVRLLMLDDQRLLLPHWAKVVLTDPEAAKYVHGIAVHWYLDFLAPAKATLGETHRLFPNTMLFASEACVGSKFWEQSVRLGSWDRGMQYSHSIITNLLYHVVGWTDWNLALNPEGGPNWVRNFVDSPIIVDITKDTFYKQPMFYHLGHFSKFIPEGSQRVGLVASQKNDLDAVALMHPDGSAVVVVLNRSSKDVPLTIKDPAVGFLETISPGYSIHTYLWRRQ

Potency, inactive:
Cc1ccccc1N(CC(=O)Nc1ccc(F)cc1)S(C)(=O)=O > 76.9 µM
CCOC(=O)CC(=O)CSc1nnc2c(n1)[nH]c1ccccc12 > 76.9 µM
O=C(CSc1nnc(-c2ccc(Cl)s2)o1)N1CCOCC1 > 76.9 µM
COC(=O)c1cc(Br)c(=O)n(Cc2ccc(OC)c(OC)c2)c1 > 76.9 µM
O=C(CN1C(=O)c2ccccc2S1(=O)=O)N1CCN(c2ccccc2F)CC1 > 76.9 µM
O=C(Nc1ccon1)c1ccc(Br)o1 > 76.9 µM
CCOC1=NC(C(=O)O)c2ccccc2/C(=C(/C)Cl)N1 (stereo not given) > 76.9 µM
CCCNC(=O)c1nc2ncc(Br)cn2n1 > 76.9 µM
CCCNC(=O)CN(C1CCCCC1)S(C)(=O)=O > 76.9 µM
O=C(Nc1ccc2c(c1)OCO2)c1c(F)c(F)c(F)c(F)c1F > 76.9 µM
COC(=O)c1ccc(NC(=O)Nc2ccc(F)cc2)cc1 > 76.9 µM
CCOc1cc(S(=O)(=O)N2CCOCC2)ccc1F > 76.9 µM
CCCCNC(=O)NS(=O)(=O)c1ccc(C(=O)OC)o1 > 76.9 µM
COc1cccc(Nc2nnc(SCn3nnc4ccccc4c3=O)s2)c1 > 76.9 µM
COc1cccc(N2CCN(S(=O)(=O)c3ccc4nc(-c5ccccc5)[nH]c4c3)CC2)c1 > 76.9 µM
C=CCN=C(CC)C1=C(O)CCCC1=O > 76.9 µM
Cc1ccc(S(=O)(=O)NC(CC(N)=O)C(=O)O)cc1 (stereo not given) > 76.9 µM
Cc1cccc2cc(C(c3nnnn3C3CCCC3)N3CCOCC3)c(=O)[nH]c12 (stereo not given) > 76.9 µM
CCC(Sc1nnnn1C)C(=O)Nc1ccc(C(C)=O)cc1 (stereo not given) > 76.9 µM
COC(=O)c1ccccc1NC(=O)C1CC(c2ccc(F)cc2)=NO1 (stereo not given) > 76.9 µM
CCOc1ccccc1Nc1ccc(C(=O)O)cc1NC(C)=O > 76.9 µM
CCCCN(C)Cc1c(C)[nH]c2ccc(Cl)cc2c1=O > 76.9 µM
Cc1c(NC(=O)c2cc(=O)[nH]c(=O)[nH]2)c(=O)n(-c2ccccc2)n1C > 76.9 µM
O=C(CSc1cccc2cccnc12)NCc1ccco1 > 76.9 µM
CCOC(=O)C(C)Oc1ccccc1C1NC(=O)NC(C)=C1C(=O)Nc1ccc(C)c(C)c1 (stereo not given) > 76.9 µM
CCC(=O)Nc1ccccc1C(=O)OCC(=O)Nc1ccc(S(N)(=O)=O)cc1 > 76.9 µM
CCCn1c(C)cc(C(=O)CN2C(=O)c3ccccc3C2=O)c1C > 76.9 µM
Cc1c(C(=O)N2CCN(c3ccccn3)CC2)oc2ccccc12
CCOC(=O)C1=C(C)N(C)C(=O)NC1c1ccc(C)s1 (stereo not given) > 76.9 µM
Cc1ccccc1C(=O)c1cccn1CC(=O)NCc1ccco1 > 76.9 µM
CC(C)CCN1CC(C(=O)NC(C)C)CC1=O (stereo not given) > 76.9 µM
O=S(=O)(c1cccc(-c2nnco2)c1)N1CCCC1 > 76.9 µM
COc1cccc(C2c3c(oc4ccccc4c3=O)C(=O)N2CCCN2CCOCC2)c1OC (stereo not given) > 76.9 µM
Cc1ccc(C(=O)O)cc1S(=O)(=O)N1CCSCC1 > 76.9 µM
CCCN1CCC(NC(=O)Nc2ccc(F)cc2F)CC1 > 76.9 µM
O=C(O)C1C2C=CC(C2)C1C(=O)NCCCN1CCOCC1 (stereo not given) > 76.9 µM
CCCN(Cc1ccccc1)C(=O)Nc1ccc2c(c1)nnn2C > 76.9 µM
COc1cc(OC)cc(C(=O)NC2CCSC2=O)c1 (stereo not given) > 76.9 µM
O=C(NC(=O)c1ccc(Cl)cc1)Nc1cc(N2CCCCC2)ncn1 > 76.9 µM
COCc1nnc(SCC(=O)NCc2ccccc2)n1-c1ccccc1 > 76.9 µM
CCOC(=O)c1nnn(-c2nonc2-n2cccc2)c1C > 76.9 µM
O=C(CSc1ncnc2c1oc1ccccc12)NCc1ccco1 > 76.9 µM
CCOC(=O)c1c(C)n(C(=O)c2ccco2)c(=O)n1C(=O)c1ccco1 > 76.9 µM
COC(=O)c1c(NC(=O)CN2CCN(C(=O)c3ccco3)CC2)c2c(C)cccc2n1C > 76.9 µM
CCOC(=O)CCCCC(=O)c1[nH]c(=O)[nH]c1CN1CCOCC1 > 76.9 µM
CCn1c(=O)cc(OCC(=O)NCc2ccco2)c2ccccc21 > 76.9 µM
Cc1c(C(=O)N2CCOCC2)oc2c1C(=O)CC(C)(C)C2 > 76.9 µM
CN(c1cccc(NC(=O)COc2ccccc2)c1)S(C)(=O)=O > 76.9 µM
O=C(O)c1cccc(N2C(=O)CSC2c2c(F)cccc2Cl)c1 (stereo not given) > 76.9 µM
c1cc(CNc2ccc3c(c2)OCCO3)ccn1 > 76.9 µM
CCNC(=O)COC(=O)COc1ccc(Cl)cc1C > 76.9 µM
Cc1ccc2c(c1)c1ncnc(N3CCN(c4ccccc4)CC3)c1n2C > 76.9 µM
CCOc1cccc(NC(=O)C2CC(=O)N(C)C2)c1 (stereo not given) > 76.9 µM
CCOC(=O)c1c(NC(=O)Cn2nnc3ccccc32)sc2c1CCC(C)C2 (stereo not given) > 76.9 µM
C=CCn1c2ccccc2c2nnc(SCc3ccc4nonc4c3)nc21 > 76.9 µM
O=C(NCc1ccccc1)c1cc(S(=O)(=O)N2CCOCC2)ccc1F > 76.9 µM
COc1ccccc1-c1cc(C(=O)Nc2ccccc2SC)no1 > 76.9 µM
CC1(C)NC(=O)N(CC(O)CN(Cc2ccccc2)Cc2ccccc2)C1=O (stereo not given) > 76.9 µM
CCOC(=O)C1CCN(CC(=O)Nc2c(C(=O)OC)n(C)c3cccc(C)c23)CC1 > 76.9 µM
CCOc1ccc(-n2c(COc3ccccc3)nnc2SCC(N)=O)cc1 > 76.9 µM
